± gives the standard deviation of the averaged measurements. This is one part of the list.
tested on: PfAP2-EXP AP2 domain (GST-tagged); test: gcPBM binding intensity (ln(normalized median fluorescence intensity)); higher = stronger DNA binding
Procedure, shortened: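 Binding intensity is the highest Masliner-normalised natural-log median intensity over replicate spots in either probe orientation. To obtain it, GST-tagged P. falciparum DNA-binding domains made in E. coli were incubated for 1 h on an Agilent 4 × 180k array of primer-extended double-stranded 36-bp intergenic genomic probes plus negative controls. Detection used Alexa488 anti-GST antibody with scanning at 488 nm.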

| Sequence | gcPBM binding intensity (ln) |
| --- | --- |
| ACAAAAATATTATATTGTACATTATTAGTTCATATT [XGTACX_site6750] | 8.5 ± 0.3 |
| TTTTTATATAAATAATGTACATTTGGTTTTATTATA [XGTACX_site2125] | 8.53 ± 0.35 |
| TATTTGTATAAATAAAAATAATATATATCAAATAAC [CACACA_negctrl_site218] | 8.41 ± 0.42 |
| AACACCCACAGACACACACACAAAAATGATTAAAAA [CACACA_site2433] | 8.55 ± 0.6 |
| TGAACTCATAGGAAAACACACATATGTGTAATATAT [CACACA_site4267] | 8.88 ± 0.45 |
| AACAAAAAAACAAACACACACACACGCATATTTATA [CACACA_site7680] | 8.52 ± 0.2 |
| AAATATAGTATTAAAACACACATTTATATAAAAAGG [CACACA_site1482] | 8.59 ± 0.42 |
| AAAAACAACACAGATAAATTAACACACACACACATA [XGTACX_negctrl_site588] | 8.76 ± 0.47 |
| TTATGTGATTTTAATTGTACATAAATATTTGTTAAC [XGTACX_site3489] | 8.52 ± 0.42 |
| TATATACTCAGACATACACACAAATAAAAAAACACC [CACACA_site5820] | 9.21 ± 0.29 |
| CACGCATACAGACACACACACACACGGATATAAATA [CACACA_site6445] | 8.53 ± 0.49 |
| CAATAAATCGAAATCGTGCACGGACACATGCAGTAG | 9.53 ± 0.23 |
| ATATATATAATAAGTGGTACAAGTTATTCATTAAAT [XGTACX_site7063] | 8.64 ± 0.3 |
| AAATAATATAAATACACACACACATATATAAATACA [CACACA_site4465] | 8.69 ± 0.48 |
| GGTTCATTTATATGGAGTACAAAAAATATGTATATA [XGTACX_site8209] | 8.59 ± 0.25 |
| TAAAGTTATATATTATGTACATATTTGTATACATTT [XGTACX_site2516] | 8.7 ± 0.32 |
| AAAGAAAACGGACTTTGTACTTAAATATAATATAAA [XGTACX_site8585] | 8.62 ± 0.48 |
| TTTTTTTATACAATTTTATATATTAAATATTATAAT [CACACA_negctrl_site226] | 8.3 ± 0.43 |
| ACAAAACTTTTAAGAACACACAAAAATGTACTATCG [CACACA_site7245] | 8.47 ± 0.4 |
| CATTTACATGCCAACATGCACTGAACAATCTTTATA [GTGCAC_site9797] | 8.85 ± 0.31 |
| CCCTATATAAATAGCTGTACATTTGAACATGTTCAG [XGTACX_site2187] | 8.71 ± 0.5 |
| TACAAAAAAAAATAAAATACATATATATATATATAT [XGTACX_negctrl_site608] | 10.3 ± 0.18 |

| Sequence | gcPBM binding intensity (ln) |
| --- | --- |
| TTTTATGAATAATTATGTACATAACAAATGATATAT [XGTACX_site8318] | 8.79 ± 0.38 |
| TTTACAGGAAAAAATACACACATTATTTTACCTTAT [CACACA_site2833] | 8.27 ± 0.35 |
| ACATGCCAAAATCTAATACAATAATAATAAAAAAAA [XGTACX_negctrl_site160] | 8.51 ± 0.4 |
| CAATAAAAATTAAAATGTACAAATAAATATAAATAT [XGTACX_site7265] | 8.65 ± 0.32 |
| ATGAATTATAAATATTCACACAATATTTTTCATATG [CACACA_site4484] | 8.35 ± 0.36 |
| AGTGTGCTCAGCTTAGCACAAATTGGAATACCATGT [CACACA_negctrl_site367] | 8.63 ± 0.4 |
| GAAAATGAAATCCTTGCATGTAAAATTAAAATAGAA [TGCATGCA_site569] | 9.47 ± 0.25 |
| GTAGTAATAAATTAAAGTACAGAATATATTATACTA [XGTACX_site2809] | 8.56 ± 0.44 |
| TTTTTTTCTTAAAGATGTACTTTTTAAAAATAATCT [XGTACX_site1429] | 8.34 ± 0.4 |
| TATTTGCTACATATATGTACTAAAAACTTTTTGCTT [XGTACX_site2362] | 8.75 ± 0.37 |
| TATTATAAAAATATTCAGATACATTAACTTACTTTT [XGTACX_negctrl_site4] | 7.96 ± 0.38 |
| TGTGTGTGTTCATGGGTGCTTTAATACTATTATAGG [GTGCAC_site9465] | 8.93 ± 0.11 |
| TATCAATTTTTCTGGCTATCCAATTAGGGGAAGCCA [CACACA_negctrl_site1045] | 8.01 ± 0.52 |
| CAAAAAATTTGACGTAGTACTTAAAAAAAAAAAAAA [XGTACX_site4523] | 8.23 ± 0.53 |
| ATTTGCTCACAAGAAGCACACAAAAAAAGAAAAAAA [CACACA_site9338] | 8.34 ± 0.47 |
| TATGATTTCACATAATGTACTTGCTAATTCGTGAAT [XGTACX_site1408] | 8.21 ± 0.3 |
| GGGAAAATATTTGGGTGTACAAACAAATTAGCTAGC [XGTACX_site6795] | 9.03 ± 0.47 |
| ATATAAATAAACAGGTGTACTATAATGTTCATAGTA [XGTACX_site1553] | 8.51 ± 0.33 |
| TAATTATATATATATGCATGTTATAATTTTTATTTT [TGCATGCA_site78] | 8.195 ± 0.007 |
| AAGAAAATATAAAATGCACACTATAAATTGTATTTA [CACACA_site4257] | 8.38 ± 0.31 |
| TCTTTAACAAGTTAAACACACATACATAAATACATA [CACACA_site5406] | 8.62 ± 0.38 |
| TTATGTCATAAATGCACACATATACATTGTTTTGAT [CACACA_site646] | 8.68 ± 0.19 |

| Sequence | gcPBM binding intensity (ln) |
| --- | --- |
| ATTAAGACACATTGCACACGTGCACCCATAGAAAAA [CACACA_site408] | 9.17 ± 0.41 |
| TGAAAAAGGAAAAAAAAAAAAAAAAAAAAAACGAAA [GTGCAC_negctrl_site555] | 8.27 ± 0.68 |
| GACCATATGAATAATGCACACGTTTTAAAATATTAA [CACACA_site5312] | 8.99 ± 0.028 |
| TATTTATTATTAAGATGTACATAAAACACTGAATAA [XGTACX_site4246] | 8.7 ± 0.28 |
| TATCATTTCATATCAAGTACAAACATTTTACATATA [XGTACX_site5307] | 8.41 ± 0.43 |
| TTTTAATTAAGACACACACACACATATAAATATGTA [CACACA_site7144] | 8.47 ± 0.47 |
| ATAATAATATATATTGTACACACAAAATGGGAAAAA [CACACA_site8568] | 8.98 ± 0.47 |
| TATATATATATAATAGTGCATAAATAAATATATAAA | 9.65 ± 0.057 |
| AGCTCTTGTCATTTTGCACACACACCCGTATAGGTT [CACACA_site3056] | 9.07 ± 0.42 |
| ATCCATTATTTTTGTTGTACGGGTAACTTTAAAAAG [XGTACX_site2226] | 8.86 ± 0.5 |
| TCTTTTTTTTTTAAACGTACATTGCATTATCACGTA [XGTACX_site6873] | 8.78 ± 0.38 |
| GATTCTTCACCGTACTCACACATATATATATATATA [CACACA_site5665] | 10.2 ± 0.52 |
| AAAAGGGAAATAAAATAAAAAAAGAAACATATATAG [CACACA_negctrl_site455] | 8.85 ± 0.67 |
| TTAATTTCTATATACGCATGTATGAATAAGATATTG [TGCATGCA_site202] | 8.36 ± 0.57 |
| TAATTATATGTATACACACACATACATTTACATAAC [CACACA_site3238] | 8.66 ± 0.52 |
| TATAATTATATATATAGTACAGATTTGTTATGTTTA [XGTACX_site7724] | 8.46 ± 0.47 |
| CAAACAAACAAATATACACACTTTTGTATAAAGTAA [CACACA_site5860] | 8.32 ± 0.42 |
| ATTTTTTTATAAGAAAATTTCTAACGTTAAAAAAAA [CACACA_negctrl_site1367] | 8.38 ± 0.59 |
| CACACGCACGAACACACACACACACGCATATAAATA [CACACA_site6302] | 8.74 ± 0.38 |
| AATATATATATATTCACACATAAAAAAGTAAAAAAA [CACACA_site5040] | 8.66 ± 0.49 |
| TATCTCATAGTATACACACACACACCCACCCATATA [CACACA_site1739] | 9.29 ± 0.79 |
| ATTTCATATACAAATTGTACATACAATTTTATGTTT [XGTACX_site3240] | 8.5 ± 0.3 |

| Sequence | gcPBM binding intensity (ln) |
| --- | --- |
| TTAAAAATAATATTATGTACTAAGAATAAATATATA [XGTACX_site3100] | 8.34 ± 0.43 |
| TGTTAAAATAAAATCTATTACATTTTTATGGTTATA [XGTACX_negctrl_site525] | 8 ± 0.45 |
| TCTTGTAAATATATGTGTATATTATATTTTATTATA [TGCATGCA_negctrl_site117] | 8.24 ± 0.47 |
| TGCAAGGAAAAACACACACACACATAAATGTATATA [CACACA_site751] | 8.58 ± 0.42 |
| CTTAATATTCTTTAAAGTACACAAAATAAGAATATA [XGTACX_site5489] | 8.87 ± 0.59 |
| AAAAAACACGCACATACACACAAAAATGTTATAAAT [CACACA_site6188] | 8.59 ± 0.59 |
| ATCTCATAAAACCGCACACACATAAAATTTGCATTA [CACACA_site3891] | 8.63 ± 0.39 |
| TTATATTTTTTAATTACACACAATTTTTATAAATAT [CACACA_site4148] | 8.36 ± 0.4 |
| CTAGTAAAAAATGCAAGTACATACATTATAAGTATA [XGTACX_site3908] | 8.69 ± 0.35 |
| ATATTGGAGCACAACACACACAAGTATAAATATGGA [CACACA_site6834] | 9.03 ± 0.45 |
| AAAGAGAACAGAAGTACACACATGTTCTTTTAGTAA [CACACA_site5557] | 8.44 ± 0.47 |
| ATATTCTGCTGTTTAGTGCAATTATGAAATTATGAT | 8.68 ± 0.33 |
| TAAAAAGAAATGTAAAGTACAAATTTGAATAACATG [XGTACX_site7981] | 8.76 ± 0.43 |
| TTTTTTTTTCTTTGGTGTACAATGTAATAGAAAATA [XGTACX_site227] | 8.4 ± 0.3 |
| AAAAAAAACAAACACACACACAAATATTTATATATT [CACACA_site436] | 8.6 ± 0.48 |
| TTGATTTTTATTTTTAAAATAAATAAATTTCAAATG [TGCATGCA_negctrl_site199] | 7.97 ± 0.38 |
| TAAAAAATAAAAATTGCACACTAAAAAATTACCCAC [CACACA_site5823] | 8.99 ± 0.61 |
| ATATGTATTTATATATGTTTGATTTTTTTTTTTTTT [TGCATGCA_negctrl_site506] | 8.12 ± 0.4 |
| AAATGAAATAAAATCATATATTTATAATTATTATAA [TGCATGCA_negctrl_site612] | 7.88 ± 0.3 |
| CATACAGACATACATACACACATACCTATAAATATA [CACACA_site6995] | 8.51 ± 0.53 |
| AGGAAAAAAGAAAAAACACACATAAATATATATATA [CACACA_site3085] | 9.64 ± 0.23 |
| TAGCTCGTTCGGAGCACACACATATATATATATATA [CACACA_site1948] | 10.3 ± 0.28 |

Source: the supplement of paper PMC11417369
